# According to the supplement of paper PMC4967469:
# IC50 is the fitted dose that halves viability relative to control wells, and lower means more sensitive; a fit beyond the top or the lowest dose is shown as a bound at that dose. For AUC the same curve is integrated over the 256-fold range of doses and scaled to a fraction; values near 1 show little effect. For part of these data: Where the top dose is marked as inferred, it was calculated from the reported fits. For part of these data: An entry number marks a drug with two screens in the source, which often give different values.
# What was measured:
# Experiment in all cases: Viability of human cancer cell lines after 72 h of drug (GDSC screen)
# CHIR-99021 = compound: Cc1cnc(-c2cnc(NCCNc3ccc(C#N)cn3)nc2-c2ccc(Cl)cc2Cl)[nH]1 [CHIR-99021]
# Protocol: (§1)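 Human cancer cell lines in 384-well plates, medium with 10% serum, drug for 72 h over a 256-fold dose range (nine 2-fold or five 4-fold steps up to the top dose). Adherent lines were fixed and stained with the nucleic acid dye Syto60, suspension lines read with resazurin; signal relative to control wells, capped at 0 and 100%. One two-parameter sigmoid per drug and line, fitted in a mixed model over all curves with the slope shared within a line.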
# Cytarabine = compound: Nc1ccn([C@@H]2O[C@H](CO)[C@@H](O)[C@@H]2O)c(=O)n1 [Cytarabine]; conditions: top dose 2 µM
# Protocol: as §1
# CP466722 = compound: COc1cc2ncnc(-n3nc(-c4ccccn4)nc3N)c2cc1OC [CP466722]; conditions: top dose 16 µM; top dose inferred
# Protocol: as §1
# QL-X-138 = compound: C=CC(=O)Nc1cc(-n2c(=O)ccc3cnc4ccc(-c5cn[nH]c5)cc4c32)ccc1C [QL-X-138]; conditions: top dose 10.24 µM; top dose inferred
# Protocol: as §1
# CMK = compound: Cc1ccc(-c2c(C(=O)CCl)n(CCCO)c3ncnc(N)c23)cc1 [CMK]; conditions: top dose 4 µM; top dose inferred
# Protocol: as §1
# MPS-1-IN-1 = compound: COc1cc(N2CCC(O)CC2)ccc1Nc1cc(Nc2ccccc2S(=O)(=O)C(C)C)c2cc[nH]c2n1 [MPS-1-IN-1]; conditions: top dose 20 µM; top dose inferred
# Protocol: as §1
# Zibotentan = compound: COc1nc(C)cnc1NS(=O)(=O)c1cccnc1-c1ccc(-c2nnco2)cc1 [Zibotentan]; conditions: top dose 20 µM; top dose inferred
# Protocol: as §1
# GSK269962A = compound: CCn1c(-c2nonc2N)nc2cnc(Oc3cccc(NC(=O)c4ccc(OCCN5CCOCC5)cc4)c3)cc21 [GSK269962A]; conditions: top dose inferred
# Protocol: as §1
# KU-55933 = compound: O=c1cc(-c2cccc3c2Sc2ccccc2S3)oc(N2CCOCC2)c1 [KU-55933]; conditions: top dose 10 µM
# Protocol: as §1
# ABT-869 = compound: Cc1ccc(F)c(NC(=O)Nc2ccc(-c3cccc4[nH]nc(N)c34)cc2)c1 [ABT-869]; conditions: top dose 1.024 µM; top dose inferred
# Protocol: as §1
# ABT-888 = compound: C[C@]1(c2nc3c(C(N)=O)cccc3[nH]2)CCCN1 [ABT-888]; conditions: top dose 5 µM; top dose inferred
# Protocol: as §1
# Thapsigargin = compound: C/C=C(/C)C(=O)O[C@H]1C(C)=C2[C@H]([C@@H]1OC(=O)CCCCCCC)[C@@](C)(OC(C)=O)C[C@H](OC(=O)CCC)[C@@]1(O)[C@H]2OC(=O)[C@@]1(C)O [Thapsigargin]; conditions: top dose 0.512 µM; top dose inferred
# Protocol: as §1
# (5Z)-7-Oxozeaenol = compound: COc1cc(O)c2c(c1)/C=C/C[C@H](O)[C@H](O)C(=O)/C=C\C[C@H](C)OC2=O [(5Z)-7-Oxozeaenol]; conditions: top dose 10 µM; top dose inferred
# Protocol: as §1
# [1] = top dose 2.56 µM, screen: GDSC drug entry 154
# [2] = top dose 10 µM, screen: GDSC drug entry 1241, top dose inferred
# [3] = top dose 2.5 µM, screen: GDSC drug entry 127
# [4] = top dose 5 µM, screen: GDSC drug entry 1192
cell line,measurement,setting,value
"no-11 (glioma, adherent)",AUC,CHIR-99021; [1],0.958
same,IC50,CHIR-99021; [1],> 2560 nM
same,AUC,CHIR-99021; [2],0.961
same,IC50,CHIR-99021; [2],> 10000 nM
same,AUC,Cytarabine,0.833
same,IC50,Cytarabine,1780 nM
same,AUC,CP466722,0.766
same,IC50,CP466722,7360 nM
same,AUC,QL-X-138,0.583
same,IC50,QL-X-138,1140 nM
same,AUC,CMK,0.943
same,IC50,CMK,> 4000 nM
same,AUC,MPS-1-IN-1,0.961
same,IC50,MPS-1-IN-1,> 20000 nM
same,AUC,Zibotentan,0.983
same,IC50,Zibotentan,> 20000 nM
same,AUC,GSK269962A; [3],0.949
same,IC50,GSK269962A; [3],> 2500 nM
same,AUC,GSK269962A; [4],0.96
same,IC50,GSK269962A; [4],> 5000 nM
same,AUC,KU-55933,0.979
same,IC50,KU-55933,> 10000 nM
same,AUC,ABT-869,0.975
same,IC50,ABT-869,> 1020 nM
same,AUC,ABT-888,0.976
same,IC50,ABT-888,> 5000 nM
same,AUC,Thapsigargin,0.571
same,IC50,Thapsigargin,52.5 nM
same,AUC,(5Z)-7-Oxozeaenol,0.698
same,IC50,(5Z)-7-Oxozeaenol,2620 nM
